The whole screen tested about 48,000 compounds, of which about 120 (0.25%) were called active. Roughly 4% stayed inconclusive and do not appear here. Calls come from the whole dose curve; as a rule, active = well fitted activation curve with a large enough effect; inconclusive = small, poorly fitted or top-dose-only effect, or another doubt; inactive = no such curve, though single readings can be large or run the other way. The list shows a part of the results.
assay: Primary qHTS for Identification of Small Molecule Activators of Huntingtin-Antisense Promoter Activity; conditions: HEK293 HTT-AS promoter firefly luciferase reporter (activity 0% = vehicle and -100% = no light), 24 h; series mostly up to 57.5 µM; activity change, positive = activation: at the top concentration; note: nearly all actives have a fitted effect of over 55% in size
In short: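 HEK293 luciferase promoter-reporter cells (2,500/well) plated 24 h, then compounds added at up to 57.5 uM final for 24 h at 37 °C. Firefly luminescence by Dual-Glo, normalized to vehicle (0%) and zero RLU (-100%).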

Activity change, positive = activation, inactive:
COc1ccccc1CNC(=O)c1c(O)nc2c(C)cccn2c1=O -6.42%
COc1ccccc1NC(=O)CSc1nnc(NC(=O)Nc2ccc(C)cc2)s1 -27.3%
CN(C)CCNC(=O)c1ccc2c(c1)NC(=O)C(CS(=O)(=O)Cc1cccc(Br)c1)N2 (stereo unspecified) -12%
Cc1ccc(S(=O)(=O)N2CCCc3cc(NS(=O)(=O)c4cccc(Cl)c4)ccc32)cc1 -38.8%
CCc1ccc(NC(=O)C2CCCN2S(=O)(=O)c2ccc3c(c2)n(C)c(=O)c(=O)n3C)cc1 (stereo unspecified) -4.48%
COc1ccccc1CNC(=O)CN(C)c1nn2c(=O)cc(C)nc2s1 -6.03%
CC(=O)c1ccc(NC(=O)CSc2nnc3ccc(-c4ccc(Br)cc4)nn23)cc1 0.099%
COc1ccccc1NC(=O)CCC(=O)N1CC(C)Oc2ccc(C)cc21 (stereo unspecified) -6.87%
Cc1ccc(C(=O)c2c(N)c(C(=O)Nc3ccccc3Cl)c3ccccn23)cc1 6.4%
COC(=O)CNC(=O)C1CCN(S(=O)(=O)c2cccc3nsnc23)CC1 0.153%
CCOc1ccc(OCC(=O)NCCS(=O)(=O)N2CCN(c3ccccc3F)CC2)cc1 -8.22%
O=C(CN1C(=O)COc2ccc(Cl)cc21)Nc1cccc(F)c1 -14.6%
Cc1ccc(CCNC(=O)c2ccc3c(c2)nc2n3CCCCC2)cc1 -6.16%
Cc1sc2ncn(CC(=O)Nc3cccc(C(F)(F)F)c3)c(=O)c2c1S(=O)(=O)N1CCN(C)CC1 -4.96%
COc1cc2c(Nc3ccc(Br)cc3F)ncnc2cc1OCC1CCN(C)CC1
Cc1ccc(-n2c(=O)c3c(cnn3C)n(CC(=O)Nc3ccc(C)cc3C)c2=O)cc1 -16.3%
CC1=C(C(=O)Nc2ccc(C)cc2C)C(c2ccc([N+](=O)[O-])cc2)n2ncc(C(=O)Nc3ccc(F)cc3)c2N1 (stereo unspecified) -3.54%
CN(c1ccc(F)cc1)S(=O)(=O)N1CCCC(C(=O)NCc2cccc(Br)c2)C1 (stereo unspecified) -34.2%
Cc1c(C(=O)N2CCC(C)CC2)c(S(=O)(=O)NCc2ccc(Cl)cc2)c(C)n1C -17%
Cc1ccccc1Cc1c(C)nc2nc(SCC(=O)N(C)c3ccccc3)nn2c1C 0.786%
CC(=O)c1ccc(N2CCN(C(=O)CCC(=O)Nc3ccc4nc(N5CCCCC5)cc(C)c4c3)CC2)cc1 6.73%
CCc1ccc(OCC(=O)Nc2c(C(=O)c3ccccc3)oc3ccccc23)cc1 -5.14%
Cc1nc(-c2cccc(S(=O)(=O)N3CCC(C(=O)NCc4ccccc4)CC3)c2)no1 -25.7%
Cc1cc(=O)n2nc(N3CCC(C(=O)NCc4ccccc4Cl)CC3)sc2n1 -1.8%
Cc1ccccc1NC(=O)CCc1c(C)nc2c(c1C)c(=O)n(C)c(=O)n2C -17.7%
CCCN(C(=O)Cn1cnc2sc(C)c(S(=O)(=O)N3CCN(c4ncccn4)CC3)c2c1=O)c1cccc(C)c1 -23.8%
COc1ccc(NS(=O)(=O)c2ccc3c(c2)oc(=O)n3C)cc1Cl -27.8%
COc1ccc(OC)c(S(=O)(=O)Nc2ccc3[nH]c(=O)[nH]c3c2)c1 4.65%
Cc1cccc(CN2C(=O)c3ccccc3S(=O)(=O)c3ccc(C(=O)N4CCCC4)cc32)c1 -22.2%
Cc1oc(-c2ccccc2Cl)nc1CS(=O)(=O)CC(=O)NC(C)CCc1ccccc1 (stereo unspecified) -31.7%
COc1ccc(C(=O)Nc2nc3nc(C)c(Cl)c(=O)n3[nH]2)cc1 -5.02%
Cc1ccc2nc(Cl)c3cc(C(=O)NC4CCCCC4)sc3c2c1 -12.2%
COc1ccc(OC)c(NC(=O)C(NS(=O)(=O)c2ccc3c(c2)CCCC(=O)N3)C(C)C)c1 (stereo unspecified) 2.29%
CCOC(=O)c1ccc(NC(=O)c2nsc3ccccc23)cc1 -49.4%
NS(=O)(=O)c1ccc(Cl)c(S(N)(=O)=O)c1 -14.7%
Cc1ccc(-c2cnc(NCc3c(F)cccc3Cl)n2C)cc1 11%
CCOC(=O)c1cc(S(=O)(=O)N2CCN(c3cc(Cl)ccc3C)CC2)[nH]n1 -15.5%
CCOc1ccc(NC(=O)c2ccc3c(c2)c(C)c(C)n3Cc2ccc(F)cc2)cc1 -24.2%
Cc1ccc(NC(=O)Cn2ncc3c4ccccc4n(Cc4ccccc4)c3c2=O)cc1Cl -5.98%
Cc1ccc(C)c2sc(N3CCN(C(=O)c4ccco4)CC3)nc12 -20.7%
Cc1cn2c(=O)c(S(=O)(=O)NC(C)c3ccccc3)c(C)nc2s1 (stereo unspecified) -4.98%
Cc1c(C(=O)NN2CCCCC2)nn(-c2ccc(Cl)cc2Cl)c1-c1ccc(Cl)cc1
Cc1ccc(S(=O)(=O)c2nnn3c2nc(N2CCCCC2)c2sccc23)cc1 -1.6%
CCN(CC)S(=O)(=O)c1ccc(NC(=O)[C@H](CCSC)N2Cc3ccccc3C2=O)cc1 -8.21%
CCn1ccc2cc(S(=O)(=O)N3CCCN(C(=O)Nc4ccc(C)cc4)CC3)ccc21 -12.5%
Cc1cc(C)cc(N(C)S(=O)(=O)c2nnc(NC(=O)COc3ccc(Cl)cc3)s2)c1 -24.1%
CC(=O)c1cccc(NC(=O)CN2C(=O)CN(C)C(=O)c3ccccc32)c1 -15.9%
CCOc1ccc(Cn2c(CNS(=O)(=O)c3cccs3)nc3cccnc32)cc1 -21.2%
NC(=O)Cn1c(=O)n(-c2ccc(F)c(Cl)c2)c(=O)c2sc3ccccc3c21 -16.9%
Cc1ccc(N2CCN(c3cc(C)nc4c(-c5ccc(Cl)cc5)c(C)nn34)CC2C)cc1 (stereo unspecified) -10.7%
CCc1nc(SCc2cc(=O)c3cc(F)ccc3[nH]2)n[nH]1 -8.28%
CC(C)c1ccc(N2C(=O)CSC23C(=O)N(Cc2ccccc2F)c2ccccc23)cc1 (stereo unspecified) 0.511%
Cc1ccc(NC(=O)N2CCC(CN3CCCCCC3)CC2)c(Cl)c1 10.4%
Cc1nc(-c2ccc(S(=O)(=O)Nc3ccc(OC(F)(F)F)cc3)cc2)co1 -31.4%
CCCNC(=O)c1c(NC(=O)c2ccccc2F)sc2c1CCCCC2 -0.967%
Cc1cccc(C(=O)OCc2cc(=O)n3nc(C4CC4)sc3n2)c1 2.42%
Cc1ccc(-c2nc(C(=O)Nc3cccc(C#N)c3)c3n2CCCCC3)cc1 -35.8%
CC(C)Oc1ccc(CNS(=O)(=O)c2csc(C(N)=O)c2)cc1 -22.4%
COc1ccc(-c2nc(SCC(=O)Nc3ccc4c(c3)OCO4)c(-c3ccc(F)cc3)[nH]2)cc1OC -17.7%
CCOc1ccccc1NC(=O)CCc1nc(-c2cccc(C)c2)no1 -10.5%
COc1cc2c(cc1OC)CC(=O)N(CCCN(C)C[C@H]1Cc3cc(OC)c(OC)cc31)CC2 -2.47%

— PubChem BioAssay AID1508624 (National Center for Advancing Translational Sciences (NCATS), 2021)
